From PubChem BioAssay (Tox21)
Inconclusive means that the source gave no clear call. Such entries were picked first, then a sample of the others. Potencies of inconclusive entries are doubtful fits and often do not repeat. Calls of active or inactive are those of the source. Calls come from the whole dose curve; as a rule, active = well fitted activation curve with a large enough effect in the signal ratio in the repeat runs (not every such curve was filed as active); inconclusive = weak or mixed curves, or effect the other way; inactive = flat fitted curve, though single readings scatter; the % refers to the signal ratio.

Test: qHTS assay to identify small molecule agonists of the endoplasmic reticulum stress response signaling pathway (AID 1159516)
Conditions: ESRE-bla HeLa, ER stress beta-lactamase reporter, 5 h; activation: at 61 µM (top of the series) unless noted
Procedure, shortened: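 An ESRE-bla HeLa cell assay: compounds were pin-transferred from DMSO onto overnight-plated cells and left 5 hr at 37 C. Substrate was then loaded for 2 hr at room temperature before reading fluorescence at 460 nm and 530 nm.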
% is set by controls: 0 for no effect and ±100 for the full control effect; potency is the fitted concentration of half-maximal effect; tags give direction and shape of the fitted curve or compound fluorescence and quenching.

SMILES	Potency	activation
Cc1c(C)c2c(c(C)c1OC(=O)c1cccnc1)CC[C@@](C)(CCC[C@H](C)CCC[C@H](C)CCCC(C)C)O2	inconclusive: 6.01 µM [falling, full curve, poor fit]	–
O=C(N/N=C/c1ccccc1O)c1ccncc1	inconclusive: 0.301 µM [activator, full curve]	–
O=C(O)c1cc(O)c2c(c1)C(=O)c1cccc(O)c1C2=O	inconclusive: 20.1 µM [rising, partial curve, poor fit]	–
Fc1ccc(C(c2ccc(F)cc2)N2CCNCC2)cc1	inconclusive: 12 µM	–
CNCc1cc(F)ccc1Oc1ccc(Cl)c(Cl)c1	inconclusive: 38.9 µM [falling, partial curve]	–
CC(C)OC=O	inconclusive: 13.1 µM [falling, single point]	–
CC1(C)O[C@@H]2C[C@H]3[C@@H]4CCC5=CC(=O)CC[C@]5(C)[C@@]4(F)[C@@H](O)C[C@]3(C)[C@]2(C(=O)CCl)O1	inactive	–
CCOC(=O)c1c(N)sc2c1CCN(Cc1ccccc1)C2	inconclusive: 30.1 µM [activator]	–
CN(C)c1ccncc1	inactive	–
COCCCC/C(=N\OCCN)c1ccc(C(F)(F)F)cc1	inconclusive: 9.52 µM [falling, partial curve, poor fit]	–
Clc1ccc(C(Cn2ccnc2)OCc2ccc(Sc3ccccc3)cc2)c(Cl)c1 (stereo not drawn)	inconclusive: 19 µM [partial curve]	–
O=C1c2ccccc2C(=O)c2cc(S(=O)(=O)O)ccc21	inactive	–
CCCCCCCCOc1ccc(C(=O)c2ccccc2)c(O)c1	–	inconclusive: 9.77% [at 78.8 µM]
